20 variants from the RNAGym collection of RNA variant scans (doi:10.7554/elife.90254) can be followed below.

The labels stand for the following.
B1: LINE1-full (parent)
chain: UACGUAGGUGGUUUUCCCCUGAUAGUGCUAAGGGGGCCUGGAAGUUUGGACUGGGCAGAGCUCAACACAGCGUGGCAAAGUGGCUGUGGCUAGACUGCCUCUCUGGAUUCCUCGUCACUCAGCAGGGCAUCUCUGAGAGAAAUGCC

The source gives no read counts; variants with many changes may rest on few reads.

The variants in this data set derive from B1. Briefly: self-cleavage, relative activity (ratio to wild type); higher = more cleavage; in vitro, sequencing; the parent is a self-cleaving ribozyme.
Consider UACGUAGGUGGUUUUCCCCUGAUAGUGCUAAGGGGGCCUGGUAGUUUGGACUGGGCGGAGCUCAACACAGCGAGGCAAAGUGGCUGUGGCUAGACUGCCCCUCUGGAUUCCUCGUCACUCAGCAGGGCAUCUCUGAGAGAAAUGCC [A42U A57G U73A U100C], for which the self-cleavage stood at 2.53. To UACGUAGGUGGUUUUCCCCUGAUAGUGCUAAGGGGGCCUGGUAGUCUGGACUGGGCAGAGCUCAACACAGCGUGGCAAAGUGGCUGUGGCUAGACUGCCGCUCUGGAUUCCUCGUCACUCAGCAGGGCAUCUCUGAGAGAAAUGCC [A42U U46C U100G] belongs 0.84; to UACGUAGGUGGUUUUCCCCUGAUAGUGCUAAGGGGGCCUGGUAGUUUGGACCGGGCAGAGCUCAACACAGCGUGGCAAAGUGGCUGUGGCUAGACUGCCUCUCUGGAUUCCUCGUCACUCAGCAGGGCAUCUCCGAGAGAAAUGCC [A42U U52C U134C], 1.11; to UACGUAGGUGGUUUUCCCCUGAUAGUGCUAAGGGGGCCUGGUAGUUUGGACUGGGCAGAGCUCAACACAGCGUAGCAAAGUGGCUGUGGCUAGACUGCCUCUCUGGCUUCCUCGUCACUCAGCAGGGCAUCUCUGAGAGAAAUGCC [A42U G74A A107C], 0.84. For the variant UACGUAGGUGGUUUUCCCCUGAUAGUGCUAAGGGGGCCUGGUAGUUUGGACUGGGCAGAGCUCAACACAGCGUGGCAAAGUGGCUGUGGCUAGGCAGCCUCUCUGGAUUCCUCGUCACUCAGCAGGGCAUCUCUGAGAGAAAUGCC [A42U A94G U96A], the self-cleavage was 0.16. To UACGUAGGUGGUUUUCCCCUGAUAGUGCUAAGGGGGCCUGGUAGUUUGGACUGGGCAGAGCUCAACACAGCGUGGCAAAGUGGCUGUGGCUAGGCUGCCUCUCUGGAUUCCUCGUCACUCAGCAGGGCAUCUCUGAGAGGAAUGCC [A42U A94G A140G] belongs 0.05; to UACGUAGGUGGUUUUCCCCUGAUAGUGCUAAGGGGGCCUGGUAGUUUGGACUGGGCAGAGCUCAACACAGCGUGGCAGAGUGGCUGUGGCCAGACUGCCUCUCUGGAUUCCUCGUCACUCAGCAGGGCAUCUCUGAGAGAAAUGCC [A42U A78G U91C], 0.18; to UACGUAGGUGGUUUUCCCCUGAUAGUGCUAAGGGGGCCUGGGAGUUUGGACUGGGCAGAGCUCAACACAGCGUGGCAAAGUGGCUGUGGCUAGACUGCCUCUCUGGAUUCCUCGUCACUCAGCAGGGCACCUCUGAGGGAAAUGCC [A42G U130C A138G], 1.12. In the case of UACGUAGGUGGUUUUCCCCUGAUAGUGCUAAGGGGGCCUGGUAGUUUGGACUGGGCAGAGCUCGACACAGCGUGGCGAAGUGGCUGUGGCUAGACUGCCUCUCUGGAUUCCACGUCACUCAGCAGGGCAUCUCUGGGAGAAAUGCC [A42U A64G A77G U112A A136G], the self-cleavage amounted to 0. As for UACGUAGGUGGUUUUCCCCUGAUAGUGCUAAGGGGGCCUGGUAGUUUGGACUGGGCAGAGCUCAACACAGCGUGGCAAAGUGGCUGUGGCUAGACUGCCUCUCUGGGUUCCUCGUCACUCAGCAGGGCUUCUCUGAGAGAAAUGCC [A42U A107G A129U], the self-cleavage came out at 1.33. Regarding UACGUAGGUGGUUUUCCCCUGAUAGUGCUAAGGGGGCCUGGUUGUUUGGACUGGGCAGAGCUCAACACAGCGUGGCAGAGUGGCUGUGGCUAGACUGCCUCUCUGGAUUCCUCGUCACUCAGCAGGGCAUCUCUGAGAGAAAUGCC [A42U A43U A78G], the self-cleavage worked out at 0.38. As to UACGUAGGUGGUUUUCCCCUGAUAGUGCUAAGGGGGCCUGGUAGUUUGGACUGGGCAGAGCUCAACACAGCGUGGCAAAGUGGCUGUGGCUAGACUGCCUCUCCGAAUUCCUCGUCACUCAGCAGGGCGUCUCUGAGAGAAAUGCC [A42U U104C G106A A129G], the self-cleavage amounted to 1.69. UACGUAGGUGGUUUUCCCCUGAUAGUGCUAAGGGGGCCUGGUAGUUUGGACUGGGCAGAGCUCAACACAGCGUGGCAUAGUGGCUGUGGCUAGACUGCCUCUCUGGAUUCCUCGACACUCAGCAGGGCAUCUCUGAGAGAAAUGCC [A42U A78U U115A]: the self-cleavage worked out at 1.06. For UACGUAGGUGGUUUUCCCCUGAUAGUGCUAAGGGGGCCUGGUAGUUUGGACUGGGCAGAGCUCAACACUGCGUGGCAAAGUGGCUGUGGCUAGACAGCCUCUCUGGAUUCCUCGUCACUCAGCAGGGCAUCUCUGAGAGAACUGCC [A42U A69U U96A A142C], the self-cleavage is 0.

With UACGUAGGUGGUUUUCCCCUGAUAGUGCUAAGGGGGCCUGGACGUUUGGACUGGGCGGAGCUCAACACAGCGUGGCAAAGUGGCUGUGGCUAGACUGCCUCUCUGGAUUCCUCGUCACUCAGCAGGGCAUCUCUGAGAGAAACGCC [A43C A57G U143C], the self-cleavage is 0.95.

Turning to UACGUAGGUGGUUUUCCCCUGAUAGUGCUAAGGGGGCCUGGUAGUUUGGACUGGGCAGGGCUCAACACAGCGUGGCAAAGUGGCUGUGGCUAGACUGCCUCCCUGGAUUCCUCGUCACUCAGCAGGGCAUCUCUGGGAGAAAUGCC [A42U A59G U102C A136G], the self-cleavage was found to be 0.1. For UACGUAGGUGGUUUUCCCCUGAUAGUGCUAAGGGGGCCUGGUAGUUUGGACUGGGCAGAGCUCAACACAGCGUGGCAAAGUGGCUGUGGCUAGACUGCCUCCCUGGAUUCCUCGUCACUCGGCAGGGCAUCUCUGAGAGAAAUGCC [A42U U102C A121G], the self-cleavage was determined as 0. On to UACGUAGGUGGUUUUCCCCUGAUAGUGCUAAGGGGGCCUGGUAGUUUGGACUGGGCAGAGCUCAACACAGCGUGGCAAAGUGGCUGUGGCUAGACUGCCUCCCUGGAUUCCUCGUCACUCAGCAGGGCAUCUCUGAGAGAGAUGCC [A42U U102C A141G], for which the self-cleavage was 0.86. Under UACGUAGGUGGUUUUCCCCUGAUAGUGCUAAGGGGGCCUGGUAGUUUGGACUGGGCAGAGCUCAACACAGCGUGGCAAAGUGGCUGUGGCUAGACUGCCUCUCUGGACUCCUCGUCUCUCAGCAGGGCAUCUCUGAGAGAAAUGCC [A42U U108C A117U] stands 0.51; under UACGUAGGUGGUUUUCCCCUGAUAGUGCUAAGGGGGCCUGGUAGUUUGGACUGGGCAGAGCUCAACACAGCGGGGCAAAGUGGCUGUGGCUAGACUGCCUCUCUGGACUCCUCGUCACUCAGCAGGGCAUCUCUGAGAGAAAUGCC [A42U U73G U108C], 0.94.
